Experimental data as given in the supplement of paper PMC10126150.
Sequences with one replicate were seen in a single cluster, so their values are uncertain.

tested on: ATP; assay: switch fluorescence ratio, 500 uM ATP over buffer (Cy3 cluster intensity, sum of 5 cycles each) (fold (ratio)); higher = stronger signal-on switching upon ATP binding; sequences stand for … in TCGTCGGCAGCGTCAGATGTGTATAAGAGACAGTTTTTTTTTTTTTTTTTTTTTTTTT…TC; details: aptamer strand: ATP DNA aptamer (quencher-CACCTGGGGGAGTATTGCGGAGGAAGG + anchor), 100 nM annealed; ATP concentration: 500 uM; one replicate
In short: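 Switching-strand clusters labelled with Cy3 on a modified Illumina MiSeq flow-cell were annealed to 100 nM quencher-labelled ATP aptamer, imaged in selection buffer, and re-imaged after 15 min with 500 uM ATP at 22 °C. This was done over five cycles with NaOH stripping and re-annealing in between. The fluorescence ratio is summed target-cycle over summed buffer-cycle Cy3 intensity per cluster, averaged per switch-domain sequence, excluding clusters outside 100-1000 RFU.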
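Also: ATP exposure 15 min at 22 °C before imaging.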

Sequence | switch fluorescence ratio
TGGAACATAT | 1.02
TGGAACCTCT | 0.987
TGGAACGGCA | 1.02
TGGAACTCTA | 0.989
TGGAAGACCG | 1.01
TGGAAGCGGA | 1.01
TGGAATTTTG | 1
TGGACACAGG | 1.01
TGGACACATT | 1.06
TGGACAGAAC | 1.1
TGGACCAATG | 1.04
TGGACCTCAA | 1
TGGACGCGCA | 0.978
TGGACGTGGA | 0.99
TGGAGAGTTT | 0.98
TGGAGATAGT | 0.987
TGGAGCAACG | 1.38
TGGAGCCTAC | 1.92
TGGAGGATGT | 0.974
TGGAGGGTAT | 0.982
TGGAGTATAG | 1.04
TGGAGTCTGT | 0.952
TGGAGTGGAA | 0.982
TGGATAATCA | 1.02
TGGATAGTTC | 0.994
TGGATAGTTT | 1.01

Sequence | switch fluorescence ratio
TGGATGAAGC | 0.968
TGGATGGTGT | 0.993
TGGATTCGTA | 1.06
TGGATTGAGG | 0.983
TGGATTTACG | 1.02
TGGATTTAGG | 1.02
TGGCACAACC | 1.06
TGGCACTGCG | 1.01
TGGCACTTTA | 1.01
TGGCAGATTG | 0.98
TGGCATACTT | 1.63
TGGCATAGAA | 0.981
TGGCATTGAT | 1.02
TGGCATTGCT | 0.991
TGGCATTTCA | 1.01
TGGCCAAAAC | 1.07
TGGCCCCAGG | 2.88
TGGCCGAATC | 0.962
TGGCCGCAAG | 2.01
TGGCCGCGGT | 1.1
TGGCCTCCAT | 0.985
TGGCGAAGAT | 0.956
TGGCGAAGGG | 1.05
TGGCGACAAC | 1.15
TGGCGTTGAA | 0.97
TGGCTAAAGT | 1.03

Sequence | switch fluorescence ratio
TGGCTACCTG | 1
TGGCTCAGGT | 1.08
TGGCTCTGCA | 1.19
TGGCTGAAAG | 1.02
TGGCTGCTTT | 0.982
TGGCTTTCTG | 1.03
TGGGACAAAT | 1
TGGGACAGAG | 1.03
TGGGACCGGA | 0.994
TGGGAGTGTT | 0.97
TGGGCAACGC | 0.998
TGGGCAGCAA | 1.33
TGGGCATGAA | 0.967
TGGGCCTATG | 1
TGGGCGAATT | 0.984
TGGGCGTCGA | 0.991
TGGGCTAACG | 1.07
TGGGCTGC | 1.04
TGGGCTGGTT | 0.996
TGGGCTTCG | 1.02
TGGGGACTGC | 1.05
TGGGGATCAT | 1
TGGGGCCGG | 1.01
TGGGGCTGGG | 0.989
TGGGGCTTCC | 1.81
TGGGGCTTCT | 1.06

Sequence | switch fluorescence ratio
TGGGGGGCCC | 1.06
TGGGGGTGT | 1.01
TGGGGTACCA | 1.01
TGGGGTAGAA | 0.994
TGGGGTATCG | 0.974
TGGGGTGAAG | 0.99
TGGGTAAAAC | 1.02
TGGGTACATC | 1.03
TGGGTATCAT | 0.994
TGGGTCGCGG | 1.17
TGGGTCGCT | 0.997
TGGGTCGGG | 0.953
TGGGTCTGGA | 1.03
TGGGTGTCTT | 1.01
TGGGTGTTAG | 1.02
TGGTACGCCC | 1.05
TGGTACGCGA | 1.35
TGGTAGTCTG | 0.999
TGGTAGTGCC | 1.05
TGGTATCTAA | 0.998
TGGTATCTT | 0.998
TGGTATT | 1.03
TGGTATTAGG | 0.971
TGGTCATGAT | 0.961
TGGTCCTGTT | 0.984
TGGTCGCCGG | 0.953

Sequence | switch fluorescence ratio
TGGTCGGAGG | 0.99
TGGTCGGAGT | 1
TGGTCGTACT | 1.02
TGGTCTAACA | 1
TGGTCTAAGG | 0.991
TGGTCTAAGT | 1
TGGTCTATGG | 1
TGGTCTTCCC | 1
TGGTGACAAT | 0.987
TGGTGAGAGA | 1.02
TGGTGAGTTG | 0.985
TGGTGCAAGC | 1.05
TGGTGCCTTA | 0.977
TGGTGGACAG | 1.17
TGGTGGCTCT | 1
TGGTGTAGGT | 1.01
TGGTGTCCGA | 0.953
TGGTTAACTC | 0.963
TGGTTATGGA | 0.972
TGGTTCCTTG | 1.04
TGGTTCGTTC | 1.01
TGGTTGGCCC | 1.01
TGGTTTATGC | 1.02
TGGTTTCGGA | 1.04
TGGTTTTAG | 1.03
TGTAAAAACC | 1.14

Sequence | switch fluorescence ratio
TGTAAAAGTC | 1.05
TGTAAAGTGG | 1.04
TGTAACTACG | 1.08
TGTAACTACT | 1.02
TGTAAGGCG | 0.98
TGTAATCG | 1.01
TGTAATGTGC | 0.979
TGTAATTTGG | 1.01
TGTACCAAT | 0.992
TGTACCAGGG | 1.08
TGTACGACGT | 1.03
TGTACTCCAA | 1.1
TGTAGAATCT | 0.986
TGTAGACCGA | 0.987
TGTAGACTGT | 1.02
TGTAGAGATT | 1.02
TGTAGCCAGA | 0.982
TGTAGCCCGT | 0.971
TGTAGGCTTG | 0.982
TGTAGGGCCT | 1.03
TGTAGGGTTA | 1
TGTAGTAATG | 1.1
TGTAGTGATG | 0.949
TGTATAATTT | 0.997
TGTATCAGTT | 1.03
TGTATGACCG | 0.991

Sequence | switch fluorescence ratio
TGTATGACT | 1
TGTATGATTT | 1.01
TGTATGCGCT | 1.01
TGTATTACAC | 1.03
TGTATTGGA | 0.989
TGTCAATATC | 1.76
TGTCACAATA | 1.01
TGTCAGAGAG | 1.03
TGTCAGGCA | 1.01
TGTCATAACG | 1.03
TGTCATAAGG | 0.994
TGTCATCGTA | 0.96
TGTCATGAT | 0.982
TGTCCAATCA | 0.972
TGTCCATGGA | 1.07
TGTCCGCGGT | 1.43
TGTCCGGCGC | 1.06
TGTCCGGGGT | 1.04
TGTCCTAGTG | 0.985
TGTCGATCCG | 0.96
TGTCGATTGT | 0.947
TGTCGGCGC | 1.01
TGTCGGTCCG | 1.01
TGTCGTATAA | 1.02
TGTCGTGCT | 1.02
TGTCGTTAGC | 0.882

Sequence | switch fluorescence ratio
TGTCTGATTG | 0.994
TGTCTTCAG | 1.02
TGTCTTCTTG | 1.01
TGTCTTGAAT | 1.03
TGTGAGAGTA | 1
TGTGATACCG | 1.1
TGTGATGGCG | 1.02
TGTGCACGTT | 0.965
TGTGCATGCG | 0.971
TGTGCGGACT | 1.04
TGTGCGGGCC | 0.998
TGTGCGGTGT | 1.03
TGTGCTGAG | 0.98
TGTGCTGTT | 0.944
TGTGCTTGAC | 1.02
TGTGGAACAA | 1.07
TGTGGCGCGT | 1.03
TGTGGCTTAT | 0.969
TGTGGCTTGC | 1
